# Laboratory results reported in PMC4336329 (PLoS ONE, 2015).
# About 2,200 (0.71%) of roughly 310,000 compounds showed an effect of 50% or more. The effect is printed as a negative number. The list shows a part of the results. Where a SMILES comes first, the peptide text is derived from it. The star is where a group is joined. Boc = CC(C)(C)OC(=O)*; OBn = c1ccc(CO*)cc1
# Target: human ether-à-go-go-related gene (hERG) potassium channel (human, UniProt Q12809)
# Assay: primary screen, population patch clamp on CHO cells stably expressing hERG
# Chain of human ether-à-go-go-related gene (hERG) potassium channel (Q12809 whole entry, looked up): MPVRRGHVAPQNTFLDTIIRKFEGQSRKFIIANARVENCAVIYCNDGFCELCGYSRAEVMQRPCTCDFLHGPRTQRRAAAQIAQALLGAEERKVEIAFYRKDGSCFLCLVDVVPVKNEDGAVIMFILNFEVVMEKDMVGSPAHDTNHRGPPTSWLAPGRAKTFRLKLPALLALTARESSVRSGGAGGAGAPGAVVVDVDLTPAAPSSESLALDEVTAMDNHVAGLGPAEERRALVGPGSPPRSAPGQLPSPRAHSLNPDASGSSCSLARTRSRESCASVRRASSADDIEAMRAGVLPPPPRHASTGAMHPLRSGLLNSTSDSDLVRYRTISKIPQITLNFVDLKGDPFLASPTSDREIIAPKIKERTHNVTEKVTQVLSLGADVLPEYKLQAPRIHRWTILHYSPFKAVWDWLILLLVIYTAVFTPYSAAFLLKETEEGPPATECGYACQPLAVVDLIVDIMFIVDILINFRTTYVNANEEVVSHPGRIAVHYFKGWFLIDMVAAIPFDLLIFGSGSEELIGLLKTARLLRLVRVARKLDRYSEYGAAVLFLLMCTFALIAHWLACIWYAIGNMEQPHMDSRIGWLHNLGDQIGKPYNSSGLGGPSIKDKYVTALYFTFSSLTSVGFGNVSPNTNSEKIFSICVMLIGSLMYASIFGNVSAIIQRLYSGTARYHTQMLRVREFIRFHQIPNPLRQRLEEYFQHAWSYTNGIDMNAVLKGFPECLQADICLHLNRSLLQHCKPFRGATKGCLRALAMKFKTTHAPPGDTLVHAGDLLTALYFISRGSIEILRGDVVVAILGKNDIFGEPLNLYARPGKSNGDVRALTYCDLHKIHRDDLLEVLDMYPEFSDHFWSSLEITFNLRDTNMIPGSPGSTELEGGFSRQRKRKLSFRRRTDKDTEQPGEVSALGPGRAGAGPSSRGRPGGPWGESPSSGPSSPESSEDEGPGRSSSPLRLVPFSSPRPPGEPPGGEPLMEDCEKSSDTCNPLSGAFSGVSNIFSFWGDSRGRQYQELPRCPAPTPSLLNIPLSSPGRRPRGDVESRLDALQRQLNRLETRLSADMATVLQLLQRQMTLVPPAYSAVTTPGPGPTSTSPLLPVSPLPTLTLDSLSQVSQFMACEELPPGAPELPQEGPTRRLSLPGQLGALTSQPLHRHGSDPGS
row,Compound,"hERG current change (%, negative = inhibition) at 1uM [%]"
1,Cn1cccc1CNCCc1ccccc1F,-0.53
2,CCNC(=S)NNc1nc(N2CCOCC2)nc(N2CCOCC2)n1,5.88
3,Cn1c(=O)c2c(nc(CN3CCN(C(=O)c4ccco4)CC3)n2Cc2ccccc2)n(C)c1=O,-21.6
4,CS(=O)(=O)N1CCC(C(=O)NCc2ccccc2)CC1,2.53
5,CC1(C)Cc2nc3oc4c(=O)n(CC(=O)Nc5ccccc5)cnc4c3cc2CO1,9.96
6,COc1ccc(NC(=O)CC2Oc3ccc(C)cc3NC2=O)cc1 (stereo not shown),9.01
7,COc1ccc(-c2csc(NC(=S)NC(=O)c3ccco3)n2)cc1,18.7
8,N#CC1=C(N)SC(N)=C(C#N)C1C1CC=CCC1 (stereo not shown),7.58
9,Cc1ccc(CN2C(=O)c3ccccc3C2C(=O)NCC2CCCO2)cc1 (stereo not shown),-10.5
10,CC(C)(C)c1ccc(COC(=O)Nc2ccc(F)cc2)cc1,13.6
11,Cc1ccc(C)c(S(=O)(=O)NNC(=O)Nc2ccccc2Cl)c1,3.62
12,CC1CCCCN1C(=O)c1cccc(NC2=C(Cl)C(=O)N(Cc3ccccc3)C2=O)c1 (stereo not shown),-0.379
13,O=[N+]([O-])c1ccc(S(=O)(=O)c2ccccc2)nc1,11.2
14,Cc1cccc(Nc2ncnc(N)c2[N+](=O)[O-])n1,0.289
15,O=C(COc1cccc(NC(=O)c2cccc([N+](=O)[O-])c2)c1)c1ccc(Br)cc1,3.63
16,Cc1cc(S(=O)(=O)N2CCCC(C)C2)ccc1-n1cnnn1 (stereo not shown),11.9
17,CC1(C)CC(=O)C(C=NCCN2CCN(C(=O)c3ccc(Br)cc3)CC2)=C(O)C1,-11.6
18,Cc1cc2oc(=O)cc(CNc3ccccc3F)c2cc1O,15.3
19,COc1ccc(CC(=O)OCC(=O)Nc2ccc(C(=O)Nc3ccc(OC)cc3)cc2)cc1,10.4
20,Brc1ccc(/C=N/Nc2ccc3ccccc3n2)cc1,0.981
21,CCN(Cc1ccccc1)C(=O)C1CCN(Cc2ccc(SC)cc2)CC1.O=C(O)C(=O)O,-44.5
22,Cc1noc2ncnc(Sc3c(Cl)cccc3Cl)c12,8.7

row,Compound,"hERG current change (%, negative = inhibition) at 1uM [%]"
1,O=C(O)Cn1ccnc1,7.71
2,CNC(=O)CSCc1c(F)cccc1Cl,18.6
3,CCCc1cc(=O)oc2cc(OCC(=O)Nc3ccc(CN4CCOCC4)cc3)c(Cl)cc12,8.6
4,CCOC(=O)N1CCN(Cc2nc(N)nc(Nc3ccccc3C)n2)CC1,-3.18
5,O=c1[nH]ncc(N2CCCC2)c1Cl,11
6,Cc1cc(NC(=O)CSc2nnc(CNc3ccc(F)cc3)n2C2CCCCC2)no1,-11.3
7,CC(=O)Nc1ccc(NC(=O)C2CCCN2C(=O)Nc2cccc(F)c2)cc1 (stereo not shown),22.6
8,COc1ccc(C(=O)CSc2nnnn2C)c(OC)c1,15.3
9,Cc1nc(Cl)c(C(=O)NCCc2ccccc2)c(C)c1[N+](=O)[O-],17.3
10,O=C(NCc1ccccn1)Nc1ccc(F)cc1,12.7
11,CCc1nnc(NC(=O)C2CCCCN2S(=O)(=O)c2ccccc2)s1 (stereo not shown),6.81
12,COc1ccc(/C=C/c2cc(-c3ccc(C)cc3)o[n+]2C)cc1.F[B-](F)(F)F,-76.5
13,CCOc1ccc(N2CC(C(=O)NC3=NCCS3)CC2=O)cc1 (stereo not shown),8
14,COc1cc(NS(=O)(=O)c2ccc(NC(=S)NC(=O)c3ccc(Br)cc3)cc2)ncn1,13.4
15,Cc1nnc(SCC(=O)Nc2nc(-c3ccccc3)cs2)n1N,-0.585
16,O=C(CSc1nnc(-c2ccncc2)o1)NCc1ccccc1Cl,12
17,O=C1CN(C(=O)/C=C/c2ccccc2F)c2ccccc2N1,12.8
18,N/C(=N\OC(=O)COc1ccc(Br)cc1)c1cccnc1,2.12
19,Cc1cc(-n2c(C)cc(C(=O)COc3ccc(F)c(F)c3)c2C)no1,5.98
20,O=C(O)c1cc(NS(=O)(=O)c2ccc(N3CCOCC3)c([N+](=O)[O-])c2)cc(C(=O)O)c1,14.2
21,Cc1occc1C(=O)NNC(=O)NC12CC3CC(CC(C3)C1)C2,10.1
22,CCCC(=O)N1c2ccc(-c3csc(N)n3)cc2CC1C (stereo not shown),5.64

row,Compound,"hERG current change (%, negative = inhibition) at 1uM [%]"
1,O=C(CNc1cc(S(=O)(=O)N2CCCC2)ccc1OCC(F)(F)F)Nc1ccc(SC(F)F)cc1,4.34
2,CNC(=S)N(Cc1ccc(OC)cc1)Cc1cc2ccc(C)cc2[nH]c1=O,19
3,CCC(=O)Nc1cc(C(=O)O)ccc1Sc1ccccc1,22.1
4,O=c1[nH]c2ccc(Cl)cc2c(O)c1Cc1ccccc1,15.8
5,COc1ccccc1/C=C/C(=O)NC(=S)N(C)C1CCCCC1,6.12
6,Cc1cccc(C)c1NC(=O)CN(c1ccccn1)S(=O)(=O)c1ccccc1,10.5
7,CCOc1ccc(C(=O)Nc2cccc(-n3cnnn3)c2)cc1OCC,-11.4
8,Cc1ccc(-c2nc(C#N)c(N3CCCCC3)o2)cc1,9.81
9,CCc1cccc(NC(=O)c2ccc3c(=O)n4c(nc3c2)CCCCC4)c1,-29.8
10,COc1cc(OC)cc(C(=O)N2CCN(c3ccc(N4CCOCC4)nn3)CC2)c1,9.83
11,Cc1cccc(Nc2cc(C)nc3ccccc23)c1.Cl,-33.5
12,CCOC(=O)C1CCN(C(=O)c2ccc3c(=O)n4c(nc3c2)CCCCC4)CC1,0.974
13,CC1CCCN(S(=O)(=O)CCNC(=O)c2ccc3c(c2)OCO3)C1 (stereo not shown),9.47
14,CCOc1ccc(C(C(=O)NC2CCCCC2)N(C(=O)c2ccco2)c2ccc(-n3cnnn3)c(C)c2)cc1 (stereo not shown),3.26
15,COc1ccc(CCNc2cc(C)nc3c(-c4ccccc4)cnn23)cc1OC,13
16,CCN(Cc1ccc(OC)c(F)c1)C(=O)CCl,41.9
17,On1c(-c2ccc(Cl)cc2)nc2ccccc21,9.87
18,Cc1ccc(N=C2S/C(=C\c3cn(CC(=O)O)c4ccccc34)C(=O)N2C)cc1,13.9
19,O=C1NC(c2ccccc2)=CC(c2ccccc2)N1 (stereo not shown),16.9
20,Cc1ccc(NC(=O)CSc2nnc(CNC(=O)c3cccs3)o2)c(C)c1,3.77
21,O=C(COC(=O)COc1ccc2ccccc2c1)NC1CCCc2ccccc21 (stereo not shown),7.86
22,CN1c2ccc(C=O)c3c(C=O)ccc(c23)N(C)C1(C)C,-7.62

row,Compound,"hERG current change (%, negative = inhibition) at 1uM [%]"
1,O=C(CN(Cc1ccccc1)C(=O)CCC(=O)Nc1nccs1)NCC1CCCO1 (stereo not shown),12.5
2,Cc1cc(C(=O)Cn2nnc(-c3ccc(Cl)cc3)n2)c(C)n1CC1CCCO1 (stereo not shown),7.36
3,CCCn1c(C2CCCN2c2nc(-c3cccc(Br)c3)cs2)nc2cc(Cl)c(Cl)cc21 (stereo not shown),6.33
4,Cc1nnc(C)n1N,8.16
5,Cc1cc(C)cc(N(CC(=O)NC2CCCC2)C(=O)CCC(=O)Nc2cc(C)ccn2)c1,13.8
6,CCOC(=O)C1CCCN(C(=O)c2cc(Nc3ccc(OC)cc3)nc3ccccc23)C1 (stereo not shown),8.11
7,CCOC(=O)c1ccc2c(c1)nc(COc1ccc(OC)cc1)n2CC,-5.92
8,Cc1occc1-c1nc(-c2ccccn2)no1,11.6
9,Cc1nn(-c2cccc(C(=O)O)c2)c(C)c1[N+](=O)[O-],12.3
10,CCOC(O)[C@H]1N[C@@H](c2ccc(Cl)cc2)[C@@H]([N+](=O)[O-])[C@@H]1c1ccccc1 (stereo partly shown),5.72
11,O=[n+]1cc(-c2ccc(Br)cc2)n([O-])c2c1CCC2,2.72
12,CN1CCN(C(=O)/C(=C/c2ccccc2Cl)NC(=O)c2ccccc2)CC1,6.59
13,CCNC(=O)Nc1cc(OC)c(OC)cc1C(=O)O,7.46
14,COc1ccc2c(CC(=O)NCc3ccc4c(c3)OCO4)coc2c1,8.35
15,NC(=O)CC(NC(=O)c1ccccc1)c1ccc(N2CCN(c3ccc(F)cc3)CC2)c([N+](=O)[O-])c1 (stereo not shown),9.92
16,Cc1ccc(S(=O)(=O)NN2C(=O)/C(=C\c3ccc(Cl)cc3)SC2=S)cc1,10.4
17,CC(NC(=O)OC(C)(C)C)C(=O)NC(CCC(=O)OCc1ccccc1)C(N)=O (stereo not drawn) (Boc-Ala-Glu(OBn)-NH2; configuration not given here),8.75
18,Cc1nnc(SCC(=O)NC(=O)NC2CCCC2)n1N,17.2
19,O=C(Nc1cccc(S(=O)(=O)N2CCOCC2)c1)c1ccc2c(=O)n3c(nc2c1)CCCCC3,0.941
20,O=C(O)C1CC=CCC1C(=O)NNc1ccccc1 (stereo not shown),13.8
21,Cc1cc(C)cc(NC(=O)C(NCCN2CCOCC2)c2ccccc2)c1.O=C(O)C(=O)O (stereo not shown),12.1
22,CCCCN(C)CCNC(=O)c1nn(-c2ccc(OC)cc2)c(=O)c2c1c1ccccc1n2C,9.67
